# Some of the results follow.
# B1: PX9961U-pdi-543-24-543 (Parabacteroides distasonis) (protein)
# chain: EEPVGEFLPGQVESEENIEGIVTGAYAVLDGYYASDAINSGCSNWQFGDVVSDDAYKGGGGTGDQNQIHLMEIFNANPTGIDFEARWAALYEGIKRCNQAIRLLNGSEVKNKEQRLAEMRFLRGHYYFNLKIIYNQIPWIDETLVDPNEYNKKSNIEFSSDQLWEKILEEFSAAYKVLPESQADYGRPTKMAARAYMAKVYLYQSKWKECLEACDEVIQSGKYELFPDFRNVFLPENDNCSEIIFAIQLSINDGSPNNENGSYGDRLLPPGGPYPVYGFLRPTQNLVNAYKTDVKGLPYNDGKDVSENDYVDVRLDHTLARPNIPFMDVQLYDWTPREASVYGPYSPKKRLVSLNSTYYSPIWPYVNALNFYVIRYADLLLWRAEAAIETGDLETGRKYINMIRERAKNTQHVKTMDQSQDAANYKVGVYDEPFKSKNEAVQALRMERRLEMAHEGIRFFDLVRWGVADEVINAYIAKEKVFRSHLQNAHFVKGKHEYFPIPQSMIDICGTEVMKQNPGY
# How the values were obtained:
# Test in all cases: glycan array binding signal (z-score within array); higher = stronger binding
# Conditions in all cases: glycan notation: IUPAC condensed, linker removed
# [1] = molecular target: GlcNAc(b1-2)[GlcNAc(b1-4)]Man(a1-3)[GlcNAc(b1-4)][GlcNAc(b1-2)[GlcNAc(b1-6)]Man(a1-6)]Man(b1-4)GlcNAc(b1-4)GlcNAc
# Method in brief: (§1)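 The binding signal is a Z-score computed within each array and averaged over linkers. Arrays of the same protein sequence at different concentrations or buffers were also averaged together. Data originate from 3228 arrays in the Consortium for Functional Glycomics database, kept only where the protein sequence was available.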
# [2] = molecular target: GlcNAc(b1-2)[GlcNAc(b1-4)]Man(a1-3)[GlcNAc(b1-4)][GlcNAc(b1-2)[GlcNAc(b1-6)]Man(a1-6)]Man(b1-4)GlcNAc(b1-4)[Fuc(a1-6)]GlcNAc
# Method in brief: as §1
# [3] = molecular target: GlcNAc(b1-2)[GlcNAc(b1-6)]Man(a1-6)[GlcNAc(b1-2)Man(a1-3)]Man(b1-4)GlcNAc(b1-4)GlcNAc
# Method in brief: as §1
# [4] = molecular target: GlcNAc(b1-2)[GlcNAc(b1-6)]Man(a1-6)[GlcNAc(b1-2)Man(a1-3)]Man(b1-4)GlcNAc(b1-4)[Fuc(a1-6)]GlcNAc
# Method in brief: as §1
# [5] = molecular target: GlcNAc(b1-2)[GlcNAc(b1-6)]Man(a1-6)[GlcNAc(b1-4)][GlcNAc(b1-2)Man(a1-3)]Man(b1-4)GlcNAc(b1-4)GlcNAc
# Method in brief: as §1
# GlcNAc(b1-3)Fuc = molecular target: GlcNAc(b1-3)Fuc
# Method in brief: as §1
# GlcNAc(b1-3)Gal = molecular target: GlcNAc(b1-3)Gal
# Method in brief: as §1
# [6] = molecular target: GlcNAc(b1-3)Gal(b1-3)GalNAc
# Method in brief: as §1
# GlcNAc(b1-3)Gal(b1-4)Glc = molecular target: GlcNAc(b1-3)Gal(b1-4)Glc
# Method in brief: as §1
# [7] = molecular target: GlcNAc(b1-3)Gal(b1-4)GlcNAc
# Method in brief: as §1
# [8] = molecular target: GlcNAc(b1-3)Gal(b1-4)GlcNAc(b1-2)Man(a1-3)[GlcNAc(b1-3)Gal(b1-4)GlcNAc(b1-2)Man(a1-6)]Man(b1-4)GlcNAc(b1-4)GlcNAc
# Method in brief: as §1
# [9] = molecular target: GlcNAc(b1-3)Gal(b1-4)GlcNAc(b1-2)Man(a1-3)[GlcNAc(b1-3)Gal(b1-4)GlcNAc(b1-2)Man(a1-6)]Man(b1-4)GlcNAc(b1-4)[Fuc(a1-6)]GlcNAc
# Method in brief: as §1
# [10] = molecular target: GlcNAc(b1-3)Gal(b1-4)GlcNAc(b1-2)[GlcNAc(b1-3)Gal(b1-4)GlcNAc(b1-6)]Man(a1-6)[GlcNAc(b1-3)Gal(b1-4)GlcNAc(b1-2)Man(a1-3)]Man(b1-4)GlcNAc(b1-4)GlcNAc
# Method in brief: as §1
# [11] = molecular target: GlcNAc(b1-3)Gal(b1-4)GlcNAc(b1-3)Gal(b1-4)GlcNAc
# Method in brief: as §1
# [12] = molecular target: GlcNAc(b1-3)Gal(b1-4)GlcNAc(b1-3)Gal(b1-4)GlcNAc(b1-2)Man(a1-3)[GlcNAc(b1-3)Gal(b1-4)GlcNAc(b1-3)Gal(b1-4)GlcNAc(b1-2)Man(a1-6)]Man(b1-4)GlcNAc(b1-4)GlcNAc
# Method in brief: as §1
# [13] = molecular target: GlcNAc(b1-3)Gal(b1-4)GlcNAc(b1-3)Gal(b1-4)GlcNAc(b1-2)Man(a1-3)[GlcNAc(b1-3)Gal(b1-4)GlcNAc(b1-3)Gal(b1-4)GlcNAc(b1-2)Man(a1-6)]Man(b1-4)GlcNAc(b1-4)[Fuc(a1-6)]GlcNAc
# Method in brief: as §1
# [14] = molecular target: GlcNAc(b1-3)Gal(b1-4)GlcNAc(b1-3)Gal(b1-4)GlcNAc(b1-2)[GlcNAc(b1-3)Gal(b1-4)GlcNAc(b1-3)Gal(b1-4)GlcNAc(b1-6)]Man(a1-6)[GlcNAc(b1-3)Gal(b1-4)GlcNAc(b1-3)Gal(b1-4)GlcNAc(b1-2)Man(a1-3)]Man(b1-4)GlcNAc(b1-4)[Fuc(a1-6)]GlcNAc
# Method in brief: as §1
# [15] = molecular target: GlcNAc(b1-3)Gal(b1-4)GlcNAc(b1-3)Gal(b1-4)GlcNAc(b1-3)Gal(b1-4)GlcNAc(b1-2)Man(a1-3)[GlcNAc(b1-3)Gal(b1-4)GlcNAc(b1-3)Gal(b1-4)GlcNAc(b1-3)Gal(b1-4)GlcNAc(b1-2)Man(a1-6)]Man(b1-4)GlcNAc(b1-4)GlcNAc
# Method in brief: as §1
# [16] = molecular target: GlcNAc(b1-3)Gal(b1-4)GlcNAc(b1-3)Gal(b1-4)GlcNAc(b1-3)Gal(b1-4)GlcNAc(b1-2)Man(a1-3)[GlcNAc(b1-3)Gal(b1-4)GlcNAc(b1-3)Gal(b1-4)GlcNAc(b1-3)Gal(b1-4)GlcNAc(b1-2)Man(a1-6)]Man(b1-4)GlcNAc(b1-4)[Fuc(a1-6)]GlcNAc
# Method in brief: as §1
# [17] = molecular target: GlcNAc(b1-3)Gal(b1-4)GlcNAc(b1-3)Gal(b1-4)GlcNAc(b1-3)Gal(b1-4)GlcNAc(b1-2)[GlcNAc(b1-3)Gal(b1-4)GlcNAc(b1-3)Gal(b1-4)GlcNAc(b1-3)Gal(b1-4)GlcNAc(b1-6)]Man(a1-6)[GlcNAc(b1-3)Gal(b1-4)GlcNAc(b1-3)Gal(b1-4)GlcNAc(b1-3)Gal(b1-4)GlcNAc(b1-2)Man(a1-3)]Man(b1-4)GlcNAc(b1-4)[Fuc(a1-6)]GlcNAc
# Method in brief: as §1
# [18] = molecular target: GlcNAc(b1-3)Gal(b1-4)GlcNAc(b1-3)Gal(b1-4)GlcNAc(b1-3)Gal(b1-4)GlcNAc(b1-3)Gal(b1-4)GlcNAc(b1-2)Man(a1-3)[GlcNAc(b1-3)Gal(b1-4)GlcNAc(b1-3)Gal(b1-4)GlcNAc(b1-3)Gal(b1-4)GlcNAc(b1-3)Gal(b1-4)GlcNAc(b1-2)Man(a1-6)]Man(b1-4)GlcNAc(b1-4)GlcNAc
# Method in brief: as §1
# [19] = molecular target: GlcNAc(b1-3)Gal(b1-4)GlcNAc(b1-3)Gal(b1-4)GlcNAc(b1-3)Gal(b1-4)GlcNAc(b1-3)Gal(b1-4)GlcNAc(b1-2)Man(a1-3)[GlcNAc(b1-3)Gal(b1-4)GlcNAc(b1-3)Gal(b1-4)GlcNAc(b1-3)Gal(b1-4)GlcNAc(b1-3)Gal(b1-4)GlcNAc(b1-2)Man(a1-6)]Man(b1-4)GlcNAc(b1-4)[Fuc(a1-6)]GlcNAc
# Method in brief: as §1
# [20] = molecular target: GlcNAc(b1-3)Gal(b1-4)GlcNAc(b1-3)Gal(b1-4)GlcNAc(b1-3)Gal(b1-4)GlcNAc(b1-3)Gal(b1-4)GlcNAc(b1-2)[GlcNAc(b1-3)Gal(b1-4)GlcNAc(b1-3)Gal(b1-4)GlcNAc(b1-3)Gal(b1-4)GlcNAc(b1-3)Gal(b1-4)GlcNAc(b1-6)]Man(a1-6)[GlcNAc(b1-3)Gal(b1-4)GlcNAc(b1-3)Gal(b1-4)GlcNAc(b1-3)Gal(b1-4)GlcNAc(b1-3)Gal(b1-4)GlcNAc(b1-2)Man(a1-3)]Man(b1-4)GlcNAc(b1-4)[Fuc(a1-6)]GlcNAc
# Method in brief: as §1
# [21] = molecular target: GlcNAc(b1-3)Gal(b1-4)GlcNAc(b1-3)Gal(b1-4)GlcNAc(b1-3)GalNAc
# Method in brief: as §1
# [22] = molecular target: GlcNAc(b1-3)Gal(b1-4)GlcNAc(b1-3)GalNAc
# Method in brief: as §1
# [23] = molecular target: GlcNAc(b1-3)Gal(b1-4)GlcNAc(b1-3)[GlcNAc(b1-3)Gal(b1-4)GlcNAc(b1-3)]GalNAc
# Method in brief: as §1
# [24] = molecular target: GlcNAc(b1-3)Gal(b1-4)GlcNAc(b1-6)[Gal(b1-3)]GalNAc
# Method in brief: as §1
# [25] = molecular target: GlcNAc(b1-3)Gal(b1-4)GlcNAc(b1-6)[GlcNAc(b1-3)Gal(b1-3)]GalNAc
# Method in brief: as §1
# [26] = molecular target: GlcNAc(b1-3)Gal(b1-4)GlcNAc(b1-6)[GlcNAc(b1-3)]Gal(b1-4)GlcNAc
# Method in brief: as §1
# GlcNAc(b1-3)GalNAc = molecular target: GlcNAc(b1-3)GalNAc
# Method in brief: as §1
# GlcNAc(b1-3)Man = molecular target: GlcNAc(b1-3)Man
# Method in brief: as §1
# [27] = molecular target: GlcNAc(b1-3)[GlcNAc(b1-4)][GlcNAc(b1-6)]GlcNAc
# Method in brief: as §1
# [28] = molecular target: GlcNAc(b1-3)[GlcNAc(b1-6)]Gal(b1-4)GlcNAc
# Method in brief: as §1
# [29] = molecular target: GlcNAc(b1-3)[GlcNAc(b1-6)]GalNAc
# Method in brief: as §1
# [30] = molecular target: GlcNAc(b1-4)Gal(b1-4)GlcNAc
# Method in brief: as §1
# GlcNAc(b1-4)GlcNAc = molecular target: GlcNAc(b1-4)GlcNAc
# Method in brief: as §1
# [31] = molecular target: GlcNAc(b1-4)GlcNAc(b1-4)GlcNAc
# Method in brief: as §1
# [32] = molecular target: GlcNAc(b1-4)GlcNAc(b1-4)GlcNAc(b1-4)GlcNAc(b1-4)GlcNAc
# Method in brief: as §1
binder,measurement,setting,value
B1,glycan array binding signal (z-score),[1],-0.386
same,glycan array binding signal (z-score),[2],-0.463
same,glycan array binding signal (z-score),[3],-0.366
same,glycan array binding signal (z-score),[4],-0.304
same,glycan array binding signal (z-score),[5],-0.444
same,glycan array binding signal (z-score),GlcNAc(b1-3)Fuc,-0.37
same,glycan array binding signal (z-score),GlcNAc(b1-3)Gal,-0.394
same,glycan array binding signal (z-score),[6],-0.418
same,glycan array binding signal (z-score),GlcNAc(b1-3)Gal(b1-4)Glc,-0.369
same,glycan array binding signal (z-score),[7],-0.432
same,glycan array binding signal (z-score),[8],-0.362
same,glycan array binding signal (z-score),[9],0.498
same,glycan array binding signal (z-score),[10],-0.096
same,glycan array binding signal (z-score),[11],-0.408
same,glycan array binding signal (z-score),[12],0.226
same,glycan array binding signal (z-score),[13],-0.248
same,glycan array binding signal (z-score),[14],-0.247
same,glycan array binding signal (z-score),[15],-0.357
same,glycan array binding signal (z-score),[16],-0.256
same,glycan array binding signal (z-score),[17],-0.308
same,glycan array binding signal (z-score),[18],-0.418
same,glycan array binding signal (z-score),[19],-0.064
same,glycan array binding signal (z-score),[20],-0.227
same,glycan array binding signal (z-score),[21],-0.417
same,glycan array binding signal (z-score),[22],-0.309
same,glycan array binding signal (z-score),[23],-0.147
same,glycan array binding signal (z-score),[24],-0.373
same,glycan array binding signal (z-score),[25],-0.228
same,glycan array binding signal (z-score),[26],-0.448
same,glycan array binding signal (z-score),GlcNAc(b1-3)GalNAc,-0.325
same,glycan array binding signal (z-score),GlcNAc(b1-3)Man,-0.374
same,glycan array binding signal (z-score),[27],-0.405
same,glycan array binding signal (z-score),[28],-0.401
same,glycan array binding signal (z-score),[29],-0.366
same,glycan array binding signal (z-score),[30],-0.381
same,glycan array binding signal (z-score),GlcNAc(b1-4)GlcNAc,0.109
same,glycan array binding signal (z-score),[31],-0.444
same,glycan array binding signal (z-score),[32],-0.391
